Laboratory results from PubChem BioAssay AID504339 (National Center for Advancing Translational Sciences (NCATS), 2011).
Screen size: about 390,000 compounds; about 17,000 (4.4%) were called active. The inconclusive results got no clear call from the source; some entries with a clear call stand among them for comparison. Calls come from the whole dose curve; as a rule, active = well fitted inhibition curve with a large enough effect; inconclusive = small, poorly fitted or top-dose-only effect; inactive = no such curve, though single readings can be large or run the other way. A potency beside an inconclusive call is a rough fit, not a confirmed value.

What follows are compounds tested against Lysine-specific demethylase 4A (Homo sapiens) (UniProt O75164) (assay: qHTS Assay for Inhibitors of JMJD2A-Tudor Domain). Details: AlphaScreen JMJD2A-Tudor / H3K4me3 peptide binding; activity change, negative = inhibition: at 114 µM (top of the series).
% is set by controls: 0 for no effect and ±100 for the full control effect; potency is the fitted concentration of half-maximal effect; tags give direction and shape of the fitted curve.
Note: nearly all actives have a fitted effect of over 50% in size.

Sequence of UniProt O75164 (O75164 whole entry, looked up, the tested form may be a part): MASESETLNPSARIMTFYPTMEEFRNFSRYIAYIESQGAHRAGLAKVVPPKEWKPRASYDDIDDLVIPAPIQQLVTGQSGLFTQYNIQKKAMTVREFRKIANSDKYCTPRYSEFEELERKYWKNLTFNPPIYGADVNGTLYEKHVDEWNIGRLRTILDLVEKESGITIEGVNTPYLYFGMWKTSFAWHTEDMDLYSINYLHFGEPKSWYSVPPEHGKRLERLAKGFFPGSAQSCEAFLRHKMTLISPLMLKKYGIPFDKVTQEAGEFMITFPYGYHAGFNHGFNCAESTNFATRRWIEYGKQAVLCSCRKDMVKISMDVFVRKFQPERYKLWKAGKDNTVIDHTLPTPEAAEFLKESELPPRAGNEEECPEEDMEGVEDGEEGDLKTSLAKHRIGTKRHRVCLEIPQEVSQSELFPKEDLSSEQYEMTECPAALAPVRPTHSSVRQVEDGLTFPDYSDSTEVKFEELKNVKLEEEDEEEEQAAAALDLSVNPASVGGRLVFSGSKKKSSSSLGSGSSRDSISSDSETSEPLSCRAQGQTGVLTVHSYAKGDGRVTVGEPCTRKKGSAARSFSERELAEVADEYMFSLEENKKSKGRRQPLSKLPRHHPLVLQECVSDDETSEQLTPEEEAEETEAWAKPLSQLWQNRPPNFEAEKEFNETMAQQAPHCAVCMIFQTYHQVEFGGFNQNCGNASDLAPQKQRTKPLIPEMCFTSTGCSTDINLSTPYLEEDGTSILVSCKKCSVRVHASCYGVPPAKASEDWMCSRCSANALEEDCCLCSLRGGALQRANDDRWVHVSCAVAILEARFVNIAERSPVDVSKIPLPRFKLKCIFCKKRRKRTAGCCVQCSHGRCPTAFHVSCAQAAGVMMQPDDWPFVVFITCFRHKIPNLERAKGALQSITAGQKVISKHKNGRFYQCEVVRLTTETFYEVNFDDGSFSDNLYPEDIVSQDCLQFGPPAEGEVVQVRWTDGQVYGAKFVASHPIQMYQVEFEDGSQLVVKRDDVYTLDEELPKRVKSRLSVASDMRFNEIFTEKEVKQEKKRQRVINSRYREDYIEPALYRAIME

Potency, inconclusive:
O=c1c(Cl)c2oc3ccccc3nc-2c2ccccc12 0.794 µM [inhibitor, full curve, poor fit], C/C=C\C=C/C(=O)Nc1cccc(C2=NOC3(C2)C[C@H](C(N)=O)N(C(=O)CC)C3)c1 (stereo partly drawn) 70.8 µM [inhibitor, single point], C(=C1c2ccccc2-c2ccccc21)c1ccncc1 22.4 µM [inhibitor, full curve], c1cncc(CNc2ncnc3sc4c(c23)CCC4)c1 100 µM [inhibitor, single point], COc1ccccc1CNC(=O)/C=C/C(=O)O 63.1 µM [inhibitor, partial curve, poor fit], COC(=O)C1=C(C(=O)OC)[C@@H]2N(C)c3ccc(OC)cc3[C@@]23C[C@@H](C(=O)OC)N(C(=O)c2ccco2)C3=N1 56.2 µM [inhibitor, partial curve], COc1ccc(NC(=O)N2CCc3c([nH]c4ccc(OC)cc34)C2c2ccc(OC)cc2)cc1 (stereo not drawn) 39.8 µM [inhibitor, partial curve], C=CCn1c(NCc2ccc(N(C)C)cc2)nc2ccccc21 56.2 µM [inhibitor, partial curve], Cc1cc(C(=O)CN2C(=O)C(=O)N(C3CCCC3)C2=O)c(C)n1-c1ccc(F)cc1 20 µM [inhibitor, full curve], Cc1ccc(Cn2nnc3c(=O)[nH]c(C(=O)NCc4ccco4)nc32)cc1 15.8 µM [inhibitor, full curve], CC(=O)Nc1ccc(C=NNc2ccc([N+](=O)[O-])cc2S(=O)(=O)Nc2ccccc2C(=O)O)cc1 89.1 µM [inhibitor, single point], Cc1ccc2occ(CC(=O)N(Cc3ccc(N(C)C)cc3)C3CCS(=O)(=O)C3)c2c1 (stereo not drawn) 44.7 µM [inhibitor, partial curve]

Potency, active:
COc1ccc(-c2nn(-c3ccccc3)cc2/C=C2/SC(=S)N(CCCC(=O)O)C2=O)c(C)c1 44.7 µM, COc1ccc(N2CCN(C(c3ccccc3OC)c3nnnn3Cc3ccco3)CC2)cc1 (stereo not drawn) 50.1 µM

Activity change, negative = inhibition, inactive:
CCCSC1=C(C#N)C(c2cc(OC)ccc2OC)CC(=O)N1 (stereo not drawn) -24.1%, Cc1ccc(C(=O)OCC(=O)Nc2ccc3[nH]c(=O)[nH]c3c2)o1 -15.9%, CCCn1c(=O)[nH]c(=O)c2c1nc(-c1cc([N+](=O)[O-])ccc1Cl)n2CCOC -23.9%, O=C(CCCn1c(=S)[nH]c2ccccc2c1=O)NCCSCc1ccccc1 -11.3%
